Results reported in the supplement of paper PMC3334620.
Whole data set: some 33,000 sequences, median “E-score (-0.5 to 0.5)” near -0.041, cut for the highest 2% near 0.37. This is one part of the list.

target: T1, Ecm22 (UniProt Q05958); assay: PBM E-score (8-mer binding enrichment) (E-score (-0.5 to 0.5)); higher = stronger / more preferred TF binding; most listed sequences are background and not binding sites; conditions: protein concentration: 200 nM; construct: GST-full length
T1 sequence: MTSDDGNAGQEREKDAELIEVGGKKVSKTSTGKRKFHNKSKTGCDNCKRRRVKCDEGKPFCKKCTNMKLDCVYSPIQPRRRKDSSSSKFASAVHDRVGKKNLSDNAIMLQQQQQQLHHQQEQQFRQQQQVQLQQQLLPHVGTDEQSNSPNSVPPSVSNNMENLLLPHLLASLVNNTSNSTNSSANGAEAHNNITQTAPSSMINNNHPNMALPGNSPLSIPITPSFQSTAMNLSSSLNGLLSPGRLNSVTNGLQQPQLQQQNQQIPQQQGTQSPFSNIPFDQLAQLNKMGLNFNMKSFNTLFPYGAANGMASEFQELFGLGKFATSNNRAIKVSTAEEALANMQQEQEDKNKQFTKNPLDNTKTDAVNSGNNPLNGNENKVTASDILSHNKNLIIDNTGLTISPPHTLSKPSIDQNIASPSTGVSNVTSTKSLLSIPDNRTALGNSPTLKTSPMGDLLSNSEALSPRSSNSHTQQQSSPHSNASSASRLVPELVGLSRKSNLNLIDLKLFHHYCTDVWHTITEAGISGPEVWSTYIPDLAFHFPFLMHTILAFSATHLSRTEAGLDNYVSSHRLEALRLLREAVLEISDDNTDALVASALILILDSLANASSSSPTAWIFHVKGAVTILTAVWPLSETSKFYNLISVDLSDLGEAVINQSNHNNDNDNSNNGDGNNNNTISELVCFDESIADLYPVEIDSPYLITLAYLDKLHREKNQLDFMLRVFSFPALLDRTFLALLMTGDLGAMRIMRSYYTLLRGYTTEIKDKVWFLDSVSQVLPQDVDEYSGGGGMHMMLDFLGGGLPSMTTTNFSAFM
In short: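 Universal all-10-mer Agilent arrays, fresh or stripped once, were converted to double-stranded form by primer extension. GST-tagged yeast transcription factors from PURExpress in vitro transcription/translation, full-length or DNA-binding domain only, were applied at about 100-200 nM and detected with fluorescent anti-GST. After masliner normalisation, the Universal PBM Analysis Suite scored each ungapped eight-base word together with its reverse complement by E-score.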

Compared with AGGCGCTG, ATGTTCAC is lower in “PBM E-score” value: -0.0209 for the first, -0.144 for the second.

First: AGACCTCC
Second: ACGTACGC
The “PBM E-score” value of the first is lower: -0.15 for the first, 0.239 for the second.

First: CAAGCATC
Second: ATCTGGTA
The “PBM E-score” value of the first is lower: -0.184 for the first, 0.0716 for the second.

Compared with GTAAGTTA, CGTTATTA is higher in “PBM E-score” value: 0.0233 for the first, 0.236 for the second.

Compared with ACAAGGAC, CTCGTCTC is higher in “PBM E-score” value: -0.227 for the first, 0.26 for the second.

Compared with AGGGAATA, ATGCATGG is lower in “PBM E-score” value: 0.017 for the first, -0.124 for the second.

Going from TATATATA to CCGAGTGC, the “PBM E-score” value falls from 0.199 to 0.0849.

First: CCCTTACA
Second: CATGTTCA
The “PBM E-score” value of the first is higher: -0.127 for the first, -0.299 for the second.

First: AATCCTGA
Second: ATCGTTCG
The “PBM E-score” value of the first is lower: -0.092 for the first, 0.373 for the second.

First: GAGCCCTA
Second: ATTAGTAA
The “PBM E-score” value of the first is lower: -0.115 for the first, 0.0849 for the second.

First: CGTATACA
Second: CACGAATC
The “PBM E-score” value of the first is higher: 0.46 for the first, 0.0959 for the second.

Compared with GCGTCGAC, CATCCATC is lower in “PBM E-score” value: -0.00773 for the first, -0.107 for the second.

Compared with GTTCTTGA, CTACATTC is lower in “PBM E-score” value: 0.08 for the first, -0.172 for the second.

First: GCCCGTCA
Second: GGAAAACC
The “PBM E-score” value of the first is lower: -0.309 for the first, 0.0891 for the second.

Compared with CTATTCCC, ATTGGGAA is higher in “PBM E-score” value: -0.231 for the first, 0.132 for the second.

First: TGCTTTAA
Second: GCGGCCCA
The “PBM E-score” value of the first is higher: 0.0315 for the first, -0.0469 for the second.

Compared with GACGTTCA, AACGACTC is higher in “PBM E-score” value: 0.0272 for the first, 0.388 for the second.

Going from CAGCGCGC to ACCGGCAG, the “PBM E-score” value falls from -0.0315 to -0.137.

Going from CTGGAAAC to GCTACACA, the “PBM E-score” value falls from 0.0868 to -0.162.

First: AATGAATC
Second: TAGAGCCA
The “PBM E-score” value of the first is higher: -0.0632 for the first, -0.288 for the second.

Going from CATGAGTC to CACTTCTG, the “PBM E-score” value falls from -0.0416 to -0.291.

First: CATTTTTA
Second: GCTACGAC
The “PBM E-score” value of the first is lower: -0.128 for the first, 0.426 for the second.

Going from AGCTGCTA to CACTAATC, the “PBM E-score” value rises from -0.325 to 0.124.

Compared with CACACTTC, AGTAGACA is higher in “PBM E-score” value: -0.188 for the first, 0.0301 for the second.

Compared with CATTGCCG, CCCGTCAA is lower in “PBM E-score” value: 0.0206 for the first, -0.176 for the second.

Going from GATGAATA to AAACAGCT, the “PBM E-score” value falls from 0.0442 to -0.111.

First: GAAGCAGA
Second: GAAGCCAC
The “PBM E-score” value of the first is lower: -0.215 for the first, 0.101 for the second.

Going from AACCTAAA to AGATGATA, the “PBM E-score” value falls from 0.0906 to -0.0184.

First: GTGTCGAA
Second: CCGACTTA
The “PBM E-score” value of the first is lower: 0.0332 for the first, 0.0405 for the second.

Compared with AACAAAGG, CCACCACA is lower in “PBM E-score” value: -0.139 for the first, -0.164 for the second.

Going from AGAGTCAG to ATTGTGTA, the “PBM E-score” value rises from -0.111 to 0.0188.

Going from AGCAGGAG to AACCCTGG, the “PBM E-score” value falls from 0.0144 to -0.118.

Compared with AGTGGGTG, CCTTGACA is lower in “PBM E-score” value: -0.125 for the first, -0.243 for the second.

First: CTTTTTGA
Second: ACATATCT
The “PBM E-score” value of the first is lower: -0.151 for the first, 0.0439 for the second.

First: CGCTGTTA
Second: AATGTGTG
The “PBM E-score” value of the first is higher: 0.00882 for the first, -0.0594 for the second.

Compared with ACTTAGCC, GTCCGCAC is higher in “PBM E-score” value: -0.252 for the first, -0.0684 for the second.

Compared with ACGGACGT, GATGAGCA is lower in “PBM E-score” value: 0.138 for the first, -0.0705 for the second.

Compared with CAATTGCA, CACAAAGC is lower in “PBM E-score” value: -0.125 for the first, -0.126 for the second.

Compared with AATAGAAA, ACAAGCAG is lower in “PBM E-score” value: -0.112 for the first, -0.204 for the second.

First: CACTTGCG
Second: ATGTGCGC
The “PBM E-score” value of the first is higher: -0.0631 for the first, -0.14 for the second.

Going from CGGCTTCA to CAGTGGAG, the “PBM E-score” value falls from -0.00366 to -0.165.

Compared with CCCGACCA, CGCTCGGC is higher in “PBM E-score” value: 0.00072 for the first, 0.141 for the second.

Going from AGGCGTAG to CCACCTTC, the “PBM E-score” value rises from -0.177 to -0.13.

First: CCCCGCAA
Second: CCTCTCAA
The “PBM E-score” value of the first is higher: 0.0748 for the first, -0.127 for the second.

First: CAGTGAGG
Second: GGTTCGAA
The “PBM E-score” value of the first is lower: -0.352 for the first, 0.182 for the second.

First: AGTCCCAT
Second: TCTGTCCA
The “PBM E-score” value of the first is lower: -0.253 for the first, -0.187 for the second.

Going from CGGATTTC to GAACCCTA, the “PBM E-score” value falls from 0.0823 to -0.123.

Going from AGAGTTTC to CAGGAGTA, the “PBM E-score” value rises from -0.102 to -0.0878.

First: TCAGGGGA
Second: AAATCTCG
The “PBM E-score” value of the first is lower: -0.136 for the first, 0.25 for the second.

First: ACTTTGCA
Second: ACCGATCA
The “PBM E-score” value of the first is higher: 0.052 for the first, 0.0381 for the second.

First: CCAGCCTA
Second: CCGTGTTC
The “PBM E-score” value of the first is lower: -0.257 for the first, 0.0114 for the second.

Compared with TACTCAAA, ATTGGTAC is higher in “PBM E-score” value: -0.0956 for the first, 0.169 for the second.

First: TACATGCA
Second: AACGAATC
The “PBM E-score” value of the first is lower: 0.161 for the first, 0.387 for the second.

Going from CCCTTCCA to ACGATATC, the “PBM E-score” value rises from -0.32 to 0.351.

Going from GATTGAAC to ACCCAACT, the “PBM E-score” value falls from 0.124 to -0.0741.

First: CAAAAACA
Second: AATGCTCG
The “PBM E-score” value of the first is lower: 0.0232 for the first, 0.204 for the second.

Going from AACCCCGC to CAATAAAC, the “PBM E-score” value rises from -0.0105 to 0.173.

Compared with AATTGTTA, ACGAGAAA is higher in “PBM E-score” value: -0.0477 for the first, 0.375 for the second.

First: AAGTCCCG
Second: AAATTGTC
The “PBM E-score” value of the first is higher: -0.0221 for the first, -0.0797 for the second.

First: AGCTTTGC
Second: AAGTTAAT
The “PBM E-score” value of the first is higher: -0.0944 for the first, -0.0998 for the second.

Going from ACATATCC to TAGATGCA, the “PBM E-score” value rises from -0.103 to -0.0338.

First: GAGCCTCC
Second: ACTGTTCC
The “PBM E-score” value of the first is lower: -0.0561 for the first, -0.0468 for the second.

Going from AGTCGCGG to CACTAGAG, the “PBM E-score” value falls from 0.00929 to -0.148.

First: TGCGGAAA
Second: ACGTTACA
The “PBM E-score” value of the first is higher: 0.0553 for the first, 0.014 for the second.

First: AACAGCGG
Second: CGGGCTAG
The “PBM E-score” value of the first is higher: -0.0757 for the first, -0.133 for the second.

First: GGTGGAAC
Second: TCTCGAAA
The “PBM E-score” value of the first is higher: 0.236 for the first, 0.107 for the second.

First: CTCTACAA
Second: GGGTCAGA
The “PBM E-score” value of the first is lower: -0.0288 for the first, -0.0187 for the second.

Compared with AGATACAA, AAGCGGGA is higher in “PBM E-score” value: 0.0164 for the first, 0.0519 for the second.

Going from ACAGCGGA to CCAACTGC, the “PBM E-score” value falls from -0.144 to -0.173.

Compared with CACCGAGA, AACCGCAC is higher in “PBM E-score” value: -0.0035 for the first, 0.0331 for the second.

First: CGCCCCAG
Second: CCTTGATC
The “PBM E-score” value of the first is lower: -0.0935 for the first, -0.0846 for the second.

Compared with ACATGAAG, CATCATTA is higher in “PBM E-score” value: -0.225 for the first, -0.024 for the second.

Compared with CACAATGG, TTATATAA is higher in “PBM E-score” value: -0.202 for the first, 0.145 for the second.

Compared with AGCATATA, AGCGGCGG is higher in “PBM E-score” value: 0.0134 for the first, 0.149 for the second.

Going from GAGCATGC to CGTACATC, the “PBM E-score” value rises from -0.196 to 0.353.

Compared with ATGAGGGG, ATACTCAC is higher in “PBM E-score” value: -0.262 for the first, 0.0494 for the second.

Going from GAGTAAGC to ATTGCTTA, the “PBM E-score” value falls from -0.091 to -0.155.

Going from ACCAGAAT to ATAACGGC, the “PBM E-score” value rises from -0.0563 to 0.146.

Going from CTGTCGCA to CATAAACG, the “PBM E-score” value rises from 0.124 to 0.437.

First: ACACATCG
Second: GCCCGCCA
The “PBM E-score” value of the first is higher: 0.0325 for the first, -0.215 for the second.

First: CCACAGCG
Second: GGCGTCAA
The “PBM E-score” value of the first is lower: -0.215 for the first, -0.119 for the second.

First: ATTTTGTG
Second: ACCCGCAT
The “PBM E-score” value of the first is lower: -0.0742 for the first, 0.195 for the second.

Compared with ATTTGCAC, CAGCTTAG is lower in “PBM E-score” value: -0.0139 for the first, -0.275 for the second.

First: GATTAGAC
Second: GCACATGC
The “PBM E-score” value of the first is higher: -0.00927 for the first, -0.199 for the second.

Compared with GGTGCTAC, AGCGGACC is higher in “PBM E-score” value: -0.158 for the first, 0.0552 for the second.

First: CCGGATTA
Second: ATGTGAGA
The “PBM E-score” value of the first is higher: -0.0891 for the first, -0.24 for the second.
